The values below come from article PMC4336329 (PLoS ONE, 2015).

Screen size: about 310,000 compounds; about 14,000 (4.5%) showed an effect of 50% or more. The effect is printed as a negative number. This is one part of the list.
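Further: peak tail current of the secondary pulse compared with the same well before compound.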

The target of the assay is human ether-à-go-go-related gene (hERG) potassium channel (human, UniProt Q12809). The assay can be described thus: primary screen, population patch clamp on CHO cells stably expressing hERG.
human ether-à-go-go-related gene (hERG) potassium channel, sequence (Q12809 whole entry, looked up): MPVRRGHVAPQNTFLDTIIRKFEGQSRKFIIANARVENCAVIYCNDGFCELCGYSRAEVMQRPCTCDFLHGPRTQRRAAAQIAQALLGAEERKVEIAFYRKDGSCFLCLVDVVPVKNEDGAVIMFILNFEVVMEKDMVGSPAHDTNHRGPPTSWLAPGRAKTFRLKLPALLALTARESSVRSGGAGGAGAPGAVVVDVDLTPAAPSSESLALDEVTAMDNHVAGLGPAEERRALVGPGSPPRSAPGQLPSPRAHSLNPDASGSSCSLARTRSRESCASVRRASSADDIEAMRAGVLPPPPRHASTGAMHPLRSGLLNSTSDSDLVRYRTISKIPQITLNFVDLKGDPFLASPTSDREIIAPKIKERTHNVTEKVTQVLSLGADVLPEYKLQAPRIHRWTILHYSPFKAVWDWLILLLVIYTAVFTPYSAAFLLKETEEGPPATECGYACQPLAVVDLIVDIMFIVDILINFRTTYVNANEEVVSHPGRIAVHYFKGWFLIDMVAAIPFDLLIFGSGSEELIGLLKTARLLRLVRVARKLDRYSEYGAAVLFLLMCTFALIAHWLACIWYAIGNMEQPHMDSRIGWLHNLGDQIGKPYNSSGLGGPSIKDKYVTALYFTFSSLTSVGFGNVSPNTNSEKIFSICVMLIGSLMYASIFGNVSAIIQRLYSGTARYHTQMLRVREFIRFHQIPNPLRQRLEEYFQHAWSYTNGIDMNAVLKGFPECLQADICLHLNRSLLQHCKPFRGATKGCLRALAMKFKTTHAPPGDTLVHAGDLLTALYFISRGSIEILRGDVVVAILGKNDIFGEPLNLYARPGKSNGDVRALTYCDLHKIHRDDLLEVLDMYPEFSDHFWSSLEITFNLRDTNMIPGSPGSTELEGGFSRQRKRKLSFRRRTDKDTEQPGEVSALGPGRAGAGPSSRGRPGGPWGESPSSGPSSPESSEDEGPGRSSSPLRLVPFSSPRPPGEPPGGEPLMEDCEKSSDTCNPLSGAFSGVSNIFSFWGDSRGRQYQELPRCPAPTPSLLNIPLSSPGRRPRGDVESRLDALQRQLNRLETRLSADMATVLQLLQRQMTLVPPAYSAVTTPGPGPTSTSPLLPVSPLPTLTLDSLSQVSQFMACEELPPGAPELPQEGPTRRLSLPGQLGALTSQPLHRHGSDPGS
Consider `Cn1c(SCC(=O)N2CCc3ccccc3C2)nnc1-c1cccs1`, for which the “hERG current change (%, negative = inhibition) at 10uM” value was -45.1%. On to `O=C(OC(C(=O)Nc1ccc(Cl)c(C(F)(F)F)c1)c1ccccc1)C1=COCCO1` (stereo not drawn), for which the “hERG current change (%, negative = inhibition) at 10uM” value is given as 19.1%. `CCN(Cc1ccncc1)C(=O)c1cc(COc2ccc(C)c(C)c2)on1`: the “hERG current change (%, negative = inhibition) at 10uM” value is recorded as -69.5%.

As for `O=C(COc1ccccc1)N1CCN(S(=O)(=O)c2cccs2)CC1`, the “hERG current change (%, negative = inhibition) at 10uM” value was -31%. `COc1ccc(-n2c(O)c(C(C)=NC3CC3)c(=O)[nH]c2=O)cc1`: the “hERG current change (%, negative = inhibition) at 10uM” value is reported as 8.08%. As for `COc1ccc([N+](=O)[O-])cc1NC(=O)Nc1ccccc1`, the “hERG current change (%, negative = inhibition) at 10uM” value was determined as 10.3%.

Take `Clc1ccc(OCc2nnc(-c3ccccc3Br)o2)c(Cl)c1`: the “hERG current change (%, negative = inhibition) at 10uM” value came to 8.14%. For the molecule `CCN1CCN(CCCNC(=O)c2ccccc2NC(=O)C2=C(C)OCCS2)CC1`, the “hERG current change (%, negative = inhibition) at 10uM” value is listed as 1.11%. For `O=C(CN1C(=O)COc2ccccc21)NCCN1CCC(Cc2ccccc2)CC1`, the “hERG current change (%, negative = inhibition) at 10uM” value is reported as -56.6%. `O=C(Nc1c2c(nn1-c1ccc([N+](=O)[O-])cc1)CS(=O)(=O)C2)c1cccs1`: the “hERG current change (%, negative = inhibition) at 10uM” value is -20.5%.

Turning to `CCOCCCNC(=O)C(c1ccc(Cl)cc1)N(Cc1cccs1)C(=O)c1ccccn1` (stereo not drawn), the “hERG current change (%, negative = inhibition) at 10uM” value is reported as -16.8%. The same measure for `COc1ccc(S(=O)(=O)N2CCC3(CC2)OCCN3S(=O)(=O)c2ccc(OC)cc2)cc1`: -24.1%; for `CCOc1ccc(S(=O)(=O)NCc2ccc3c(c2)OCO3)cc1NC(C)=O`: 4.18%. `Cc1ccc(C2(C)NC(=O)N(CC(=O)NNC(=O)c3ccccc3)C2=O)cc1` (stereo not drawn): the “hERG current change (%, negative = inhibition) at 10uM” value is 13.3%.

In the case of `COc1ccccc1C(=O)NCCC(=O)NCC1COc2ccccc2O1` (stereo not drawn), the “hERG current change (%, negative = inhibition) at 10uM” value is recorded as -0.0956%.

On to `COC(=O)C1=C(C)NC(C)=C(C(=O)OC)C1C(=O)OCC(=O)c1ccc(F)cc1`, for which the “hERG current change (%, negative = inhibition) at 10uM” value is -7.46%. On to `COc1ccc(C2c3[nH]c4ccccc4c3CCN2C(=O)c2cn3ccccc3n2)c(F)c1` (stereo not drawn), for which the “hERG current change (%, negative = inhibition) at 10uM” value worked out at 2.65%. The same measure for `CCSc1nc2ccccc2n1CC(=O)N1CCCCC1`: -4.45%. For `COc1ccccc1CNC(=O)COC(=O)c1ccccc1-c1ccccc1`, the “hERG current change (%, negative = inhibition) at 10uM” value is recorded as 2.38%. `CC1CN(C(=O)Nc2ccc(Br)cc2Cl)CC(C)O1` (stereo not drawn): the “hERG current change (%, negative = inhibition) at 10uM” value is listed as 12.4%.

As for `COc1ccc(NC(=O)CN2CCN(C(=S)NC3CCCC3)CC2)cc1`, the “hERG current change (%, negative = inhibition) at 10uM” value is on record as -39.1%. Turning to `CCOC(=O)c1c(N)sc2c1CCC(C)C2` (stereo not drawn), the “hERG current change (%, negative = inhibition) at 10uM” value is -8.85%. `O=C(CSc1nnnn1-c1ccccc1)NCC1(N2CCOCC2)CCCCC1`: the “hERG current change (%, negative = inhibition) at 10uM” value is on record as -21.3%. With `O=C(c1ccccc1C(=O)N(c1ccccc1)c1ccccc1)N1CCCCC1`, the “hERG current change (%, negative = inhibition) at 10uM” value came out at 8.15%.
